Source: the supplement of paper PMC4604168 (melanoma cell lines)
Some of the results follow. Most values come without repeats; read them as rough.

Columns and labels:
Assay in all cases: cell count relative to DMSO control; melanoma cells; higher = more viable cells
Conditions in all cases: library dose: standard library concentration; 72 h
501Mel = system: 501Mel
A101D = system: A101D
A2058 = system: A2058
A375 = system: A375
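Also: cells treated in 1,536-well plates, then fixed and DAPI-stained, with nuclei counted from automated high-throughput microscope images.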

Row | SMILES | cell count (501Mel) | cell count (A101D) | cell count (A2058) | cell count (A375)
1 | CN(NC(=O)CC(=O)NN(C)C(=S)c1ccccc1)C(=S)c1ccccc1 + CCCCCCCCCCCC1=C(O)C(=O)C=C(O)C1=O [Embelin] (first compound 0.03 µM, partner dose 6 µM) | 3.09% | 74.4% | 19.1% | 93.8%
2 | NC(=O)c1ccc(N(C(N)=O)c2c(F)cccc2F)nc1-c1ccc(F)cc1F + O=C(Nc1ccccc1)c1cc([N+](=O)[O-])ccc1Cl [GW9662] (first compound 2 µM, partner dose 10 µM) | 57.6% | 76.8% | 96.8% | 83%
3 | CC(C)(C)c1cnc(CSc2cnc(NC(=O)C3CCNCC3)s2)o1 + COc1cc2ncnc(Nc3ccc(Oc4ccccc4)cc3)c2cc1OC [SrcI1] (first compound 0.05 µM, partner dose 10 µM) |  | 34.9% | 75.4% | 115%
4 | CCCCCCCCc1ccc(CCC(N)(CO)CO)cc1 [fingolimod] + COc1cc(N2CCC(N3CCN(C)CC3)CC2)ccc1Nc1ncc(Cl)c(Nc2ccccc2S(=O)(=O)C(C)C)n1 [NVP-TAE684] (first compound 10 µM, partner dose 0.4 µM) |  | 4.04% | 3.79% | 77.7%
5 | NC(=O)c1ccc(N(C(N)=O)c2c(F)cccc2F)nc1-c1ccc(F)cc1F + Oc1nc(-c2ccc(C(F)(F)F)cc2)nc2c1CSCC2 [XAV939] (first compound 2 µM, partner dose 10 µM) |  | 102% | 90.1% | 105%
6 | Cc1ccc(NC(=O)c2cccc(N(C)C)c2)cc1NC(=O)c1ccc(O)cc1 + CN(NC(=O)CC(=O)NN(C)C(=S)c1ccccc1)C(=S)c1ccccc1 [STA4783] (first compound 10 µM, partner dose 0.03 µM) |  | 29.3% | 10.6% | 110%
7 | NC(=O)c1ccc(N(C(N)=O)c2c(F)cccc2F)nc1-c1ccc(F)cc1F + C=CCNC1=C2C[C@@H](C)C[C@H](OC)[C@H](O)[C@@H](C)/C=C(\C)[C@H](OC(N)=O)[C@@H](OC)/C=C\C=C(/C)C(=O)NC(=CC1=O)C2=O [Tanespimycin] (first compound 2 µM, partner dose 0.01 µM) |  | 77.2% | 94% | 63.6%
8 | CCc1ccc(CCOc2ccc(CC3SC(=O)NC3=O)cc2)nc1 (centres undefined) [pioglitazone] + O=C(O)C(=O)Nc1sc2c(c1C(=O)O)CCNC2 [TCS401] (first compound 10 µM, partner dose 8.33333 µM) |  | 122% | 104% | 186%
9 | COc1cc2c(Oc3ccc4[nH]c(C)cc4c3F)ncnc2cc1OCCCN1CCCC1 [cediranib] + O=c1cc(-c2cccc3c2Sc2ccccc2S3)oc(N2CCOCC2)c1 [KU55933] (first compound 2 µM, partner dose 5 µM) |  | 77.5% | 82.3% | 127%
10 | Cc1ccc(NC(=O)c2cccc(N(C)C)c2)cc1NC(=O)c1ccc(O)cc1 + NC(=O)Nc1cc(-c2cccc(F)c2)sc1C(=O)N[C@H]1CCCNC1 [AZD7762] (first compound 10 µM, partner dose 0.1 µM) |  | 55.4% | 69.7% | 44%
11 | NC(=O)c1ccc(N(C(N)=O)c2c(F)cccc2F)nc1-c1ccc(F)cc1F + O=C(O)c1ccc2c(c1)nc(Nc1cccc(Cl)c1)c1ccncc12 [CX4945] (first compound 2 µM, partner dose 2 µM) |  | 76.4% | 70.3% | 108%
12 | Cc1ccc(NC(=O)c2cccc(N(C)C)c2)cc1NC(=O)c1ccc(O)cc1 + Oc1cc(-c2nc(-c3ccccc3)[nH]c2-c2ccncc2)ccc1Cl [L779450] (first compound 10 µM, partner dose 1 µM) |  | 71.1% | 85.9% | 81.3%
13 | NC(=O)c1ccc(N(C(N)=O)c2c(F)cccc2F)nc1-c1ccc(F)cc1F + CO[C@@H]1[C@H](N(C)C(=O)c2ccccc2)C[C@H]2O[C@]1(C)n1c3ccccc3c3c4c(c5c6ccccc6n2c5c31)C(=O)NC4 [Midostaurin] (first compound 2 µM, partner dose 0.4 µM) |  | 67% | 77.2% | 77%
14 | NC(=O)c1ccc(N(C(N)=O)c2c(F)cccc2F)nc1-c1ccc(F)cc1F + CCCCCCCCc1ccc(CCC(N)(CO)CO)cc1 [fingolimod] (first compound 2 µM, partner dose 10 µM) |  | 8.49% | 5.03% | 35.8%
